# Test results: paper PMC4336329 (PLoS ONE, 2015)
# In all, about 310,000 compounds went through this assay and about 14,000 (4.5%) showed an effect of 50% or more. Effects have a minus sign here. The list shows a part of the results.
# Target: human ether-à-go-go-related gene (hERG) potassium channel (human, UniProt Q12809)
# Assay: primary screen, population patch clamp on CHO cells stably expressing hERG
# 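Note: peak tail current of the secondary pulse compared with the same well before compound.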
# human ether-à-go-go-related gene (hERG) potassium channel, sequence (Q12809 whole entry, looked up): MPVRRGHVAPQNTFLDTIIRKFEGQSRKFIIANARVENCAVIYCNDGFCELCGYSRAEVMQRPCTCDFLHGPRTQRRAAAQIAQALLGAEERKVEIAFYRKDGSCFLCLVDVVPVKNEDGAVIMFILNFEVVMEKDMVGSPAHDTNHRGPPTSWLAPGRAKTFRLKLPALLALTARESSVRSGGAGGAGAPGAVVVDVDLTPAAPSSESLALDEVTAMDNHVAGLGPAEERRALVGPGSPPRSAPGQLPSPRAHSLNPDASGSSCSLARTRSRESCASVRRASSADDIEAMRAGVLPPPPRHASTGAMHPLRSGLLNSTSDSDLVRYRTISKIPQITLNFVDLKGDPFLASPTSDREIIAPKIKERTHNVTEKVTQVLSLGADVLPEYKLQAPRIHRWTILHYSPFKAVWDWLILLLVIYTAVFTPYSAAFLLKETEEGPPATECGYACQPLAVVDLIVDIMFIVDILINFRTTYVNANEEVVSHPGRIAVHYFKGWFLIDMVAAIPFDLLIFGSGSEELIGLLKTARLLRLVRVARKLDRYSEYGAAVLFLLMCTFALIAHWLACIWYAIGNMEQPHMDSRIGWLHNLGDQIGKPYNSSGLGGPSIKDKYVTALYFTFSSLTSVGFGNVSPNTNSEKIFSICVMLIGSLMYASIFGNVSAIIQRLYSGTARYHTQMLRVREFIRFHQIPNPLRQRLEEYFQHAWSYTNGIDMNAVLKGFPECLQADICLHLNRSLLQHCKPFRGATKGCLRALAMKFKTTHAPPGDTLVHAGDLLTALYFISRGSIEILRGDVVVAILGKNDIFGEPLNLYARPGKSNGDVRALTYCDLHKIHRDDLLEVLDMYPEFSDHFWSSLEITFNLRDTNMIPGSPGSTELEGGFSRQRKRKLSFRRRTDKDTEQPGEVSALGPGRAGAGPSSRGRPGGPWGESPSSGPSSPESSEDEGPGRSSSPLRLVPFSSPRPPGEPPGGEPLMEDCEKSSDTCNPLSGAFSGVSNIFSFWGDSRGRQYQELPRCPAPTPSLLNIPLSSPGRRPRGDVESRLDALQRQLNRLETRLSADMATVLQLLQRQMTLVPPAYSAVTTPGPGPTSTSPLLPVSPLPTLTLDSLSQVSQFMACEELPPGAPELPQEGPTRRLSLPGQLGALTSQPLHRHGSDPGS
row,Structure (SMILES),"hERG current change (%, negative = inhibition) at 10uM"
1,O=C(Cc1c(Cl)cccc1Cl)OCC(=O)N1CCN(C(=O)c2ccco2)CC1,-14.9%
2,Cc1cc(C(=O)NCc2ccccc2)no1,12.8%
3,CCCC(c1nnnn1C(C)(C)C)N1CCN(Cc2ccccc2OC)CC1.Cl (centres unmarked),-29.6%
4,Cc1cc(C)c(NC(=O)C2CCCCN2C)c(C)c1.Cl (centres unmarked),-7.82%
5,CCC(C)c1ccc(NC(=S)N2CCN(C(=O)C3CCCO3)CC2)cc1 (centres unmarked),-40.9%
6,O=C(NN1C(=O)c2ccccc2NC1c1cccnc1)c1ccc([N+](=O)[O-])cc1 (centres unmarked),-37.5%
7,COc1ccc(C(=O)N2CCN(C3CCCCC3)CC2)cc1OC.O=C(O)C(=O)O,-73.6%
8,Cc1ccc(C(=O)NC(C(=O)NC2CCCC2)c2ccccc2)cc1 (centres unmarked),15%
9,Cc1sc(NC(=O)C2CSC3(C)CCC(=O)N23)nc1-c1ccc(F)cc1 (centres unmarked),-23.5%
10,O=C(CCCC(=O)N1CCCc2ccccc21)N1CCCc2ccccc21,-29.2%
11,CN(CC(=O)Nc1ccc(F)cc1)C(=O)CSc1nncs1,15.1%
12,CCCN1/C(=C2/SC(=S)N(CC)C2=O)C=Cc2ccccc21,6.77%
13,CCCCN(CC)C(=O)CSc1nc2n[nH]c(C)c2c(=N)n1-c1cccc(C)c1,-26.8%
14,Cc1nc(SCC(=O)N2CCCCC2)c2c(C)c(C)sc2n1,-11.7%
15,COc1ccccc1C(=O)NC(CCSC)C(=O)NCc1ccncc1 (centres unmarked),-1.93%
16,CC(=O)c1cccc(NC(=O)C2CCN(S(=O)(=O)c3cccs3)CC2)c1,-0.951%
17,COc1ccc(CN2CCN(C(=O)CCC(=O)Nc3nnc(C(F)(F)F)s3)CC2)cc1F,-27.9%
18,Cc1ccc(C23OC(=O)C(C)(C)C2OC(=O)C3(C)C)cc1 (centres unmarked),-3.28%
19,CN1CCN(C(=O)CCCOc2cc(=O)n(C)c3ccccc23)CC1,0.874%

row,Structure (SMILES),"hERG current change (%, negative = inhibition) at 10uM"
1,Cc1cccn2c(=O)c3cc(C(=O)N4CCCC(C)C4)sc3nc12 (centres unmarked),-0.439%
2,COc1ccc(NC(=O)CSc2n[nH]c(-c3ccncc3)n2)c([N+](=O)[O-])c1,-7.72%
3,COc1cc(C)c(CNC2CCCCC2)cc1C,0.374%
4,CCSc1nc(CC)c2c(c1C#N)CCCC2,-7.06%
5,Cc1ccc(N(CC(=O)NCC2CCCO2)S(=O)(=O)c2ccccc2)c(C)c1 (centres unmarked),16%
6,Cc1cc(C)n(CC(O)Cn2ccc3ccccc32)n1 (centres unmarked),-12.5%
7,C[C@@H](NC(=O)[C@@H]1Cc2ccccc2CN1)C(=O)NCc1ccco1,13.6%
8,CC(C)CC(=O)Nc1cccc(-c2csc(-c3ccccc3)n2)c1,10.4%
9,O=C(/C=C/c1ccco1)NC(=S)Nc1ccc(Cl)cn1,4.03%
10,Cc1ccc(N2CC(C(=O)Nc3nnc(SCC(N)=O)s3)CC2=O)cc1C (centres unmarked),18.5%
11,NS(=O)(=O)c1ccc(NC(=O)COC(=O)CCc2nc3ccccc3c(=O)[nH]2)cc1,1.4%
12,Cc1cccc(N(CC(=O)Nc2ccc(-c3nc4ccc(C)cc4s3)cc2)S(C)(=O)=O)c1,17.4%
13,C=CCNCCOCCOc1ccc(C)cc1Br.O=C(O)C(=O)O,-8.74%
14,O=C(Nc1ccc(Cl)cc1)C1CCCC1,5.89%
15,CC(=O)c1cc(-c2ccc(F)cc2)n(CCC(=O)Nc2cccnc2)c1C,6.38%
16,Cc1cccc(NC(=O)CCCN2C(=O)C3CC=CCC3C2=O)c1 (centres unmarked),-3.87%
17,COc1ccc2cc(CN(CCc3ccccc3)Cc3nnnn3CC3CCCO3)c(=O)[nH]c2c1 (centres unmarked),-31.3%
18,Cc1cc(-c2ccc(S(=O)(=O)N3CCN(c4cccc(C(F)(F)F)c4)CC3)s2)on1,8.72%
19,CCC(C)NC(=O)C1CCN(C(=O)COc2ccc3c4c(c(=O)oc3c2C)CCCC4)CC1 (centres unmarked),8.37%

row,Structure (SMILES),"hERG current change (%, negative = inhibition) at 10uM"
1,O=C(NCCc1ccccc1)c1cccnc1,7.59%
2,COc1ccc(CCNC(=O)C2CCN(C(=O)c3ccc(Cl)cc3)CC2)cc1,-12.8%
3,C/C(=N\NC(=O)c1csc(C)c1C)c1ccc(Cl)s1,-0.674%
4,Cc1cc(C)cc(NC(=S)N(CCN(C)C)Cc2cccs2)c1,-25.1%
5,CN(C)C=O.O=C(/C=C/c1cccc(F)c1)Nc1ccc(S(=O)(=O)Nc2ncccn2)cc1,-9.37%
6,O=C(N1CCOCC1)C12CC3CC(C1)CC(c1ccccc1)(C3)C2,-14%
7,COC(=O)Nc1ccc(Cc2ccncc2)cc1,12.6%
8,O=C(COC(=O)c1ccc(Oc2ccccc2)cc1)Nc1nnc(-c2ccccc2)o1,-0.509%
9,O=C(O)CSc1nnc(-c2cccc(S(=O)(=O)N3CCCCC3)c2)o1,18.7%
10,Cc1c(NC(=O)CC(C)C)c(=O)n(-c2ccccc2)n1C,13.7%
11,Cc1ccc(S(=O)(=O)CCC(=O)Nc2ccccc2Br)cc1,10.6%
12,Cc1ccc(S(=O)(=O)NCC2CCC(C(=O)N3CCN(C)CC3)CC2)cc1 (centres unmarked),9.68%
13,O=C(CCC(=O)NC12CC3CC(CC(C3)C1)C2)NC1CCCCC1,11.7%
14,Cc1ccc(C)c(C(=O)OCC(=O)Nc2cccc(S(=O)(=O)NC3=NCCCCC3)c2)c1,-17.5%
15,O=C(Cc1ccc(Cl)cc1)Nc1ccccc1C(=O)N1CCCC1,-5.15%
16,O=C(CSc1nnc(CNC(=O)c2ccccc2)o1)Nc1nccs1,13.4%
17,COc1ccc(S(=O)(=O)N2CCN(C3CCN(Cc4ccccc4)CC3)CC2)cc1,-59.4%
18,Cl.O=C1CSC(c2cccc([N+](=O)[O-])c2)N1CCN1CCCCC1 (centres unmarked),-21.4%
